The list shows a part of the results. At the low end of the ranking, values are background and their order means little.

For the assay, the target named is SIX1-Q177R homeodomain (UniProt Q15475). Nature of the assay: universal protein binding microarray. The note with it: Universal all-10-mer PBM (8x60K, AMADID 030236), 300 nM GST-tagged protein, Alexa Fluor 488 anti-GST; buffer, salt, pH and temperature not stated; high values mean tight binding; most listed sequences are background and not binding sites; double strand, one strand shown.
For AAGCGATG, the binding signal is -0.373 E-score.
The result for ATCTCTAA reads -0.158 E-score.
For the sequence GAACAAGA, the binding signal was found to be 0.0214 E-score.
Next, CACTCATG: 0.244 E-score.
Next, ATCCAAGG: -0.113 E-score; ACCAGTAG: 0.0521 E-score.
Regarding AAGATTCG, the binding signal was -0.108 E-score.
Next, ATGTGAAA: -0.211 E-score; ACTGCTCC: 0.0303 E-score; AGAAATCG: -0.357 E-score.
Next, AGAAGTTG: -0.277 E-score; AGCGCAGA: 0.0112 E-score.
For the sequence ACTCATAA, the binding signal was -0.115 E-score.
Next, AAACCGCG: -0.0493 E-score.
For AGCAGGGG, the binding signal is 0.0202 E-score.
Next, AGGTTTGA: -0.137 E-score; GGGATCGA: 0.257 E-score; AAGAGGTG: 0.368 E-score.
Next, AACGACGG: 0.0401 E-score; AAACCTCT: -0.00611 E-score; TCTCGAGA: 0.00777 E-score.
In the case of CCGCGACA, the binding signal turned out to be 0.241 E-score.
Take CGACGCCC: the binding signal came to 0.147 E-score.
The result for GACAAATC reads -0.248 E-score.
Next, CAAGGTTC: -0.00231 E-score; CGCGGGCA: 0.276 E-score; AAGAGCCC: -0.295 E-score.
For the sequence CCTTACCG, the binding signal is -0.0755 E-score.
Next, CACCGATG: 0.32 E-score; ACCCATGC: 0.0227 E-score; GATCGTAC: -0.0272 E-score.
The result for CATTAATC reads -0.0681 E-score; that for ACTGTCGC, -0.123 E-score.
The result for CGACCCCC reads 0.256 E-score; that for TGCTTCCA, -0.0762 E-score.
AGCTCAAG: the binding signal is -0.213 E-score.
For CGAACAAC, the binding signal worked out at 0.0166 E-score.
Next, CTGAACTA: -0.0392 E-score.
For TTCAAAAA, the binding signal is -0.0897 E-score.
Regarding ACCCTCGG, the binding signal was 0.2 E-score.
The result for CGTCATGA reads 0.0519 E-score; that for ATTCCTCC, -0.0788 E-score.
The result for GAGTTGGA reads -0.2 E-score; that for CGTGCGAC, 0.13 E-score; that for CGGTCTAC, -0.0459 E-score.
With AAGGACAT, the binding signal was -0.0586 E-score.
Take GGCTGTAA: the binding signal is -0.15 E-score.
Next, GTAAGAGA: -0.118 E-score.
Next, CCCTGCGG: 0.122 E-score; ACGGCTAG: -0.0855 E-score; GAGTATAC: 0.157 E-score.
For the sequence CGGAGAGA, the binding signal was -0.0416 E-score.
Turning to CCCAACGG, the binding signal is 0.00412 E-score.
The result for CTGCCTTC reads -0.319 E-score; that for AGTCGAAT, -0.128 E-score; that for AACTATCA, -0.187 E-score.
Next, ACAAGGTC: 0.218 E-score; GATAGCAC: 0.0149 E-score.
The result for CTCCTTTA reads -0.0813 E-score.
On to GACTAACA, for which the binding signal was 0.024 E-score.
Next, GAGTCCAC: 0.135 E-score; ATTTGGCA: -0.2 E-score; AATCCACA: 0.155 E-score.
The result for AAACTGGT reads 0.203 E-score; that for AATCCGAC, -0.0596 E-score.
The result for ACCGTTGG reads 0.216 E-score; that for GTGGTAAC, -0.0465 E-score.
Consider AGAAGCCT, for which the binding signal was -0.0357 E-score.
The result for AGCGCAAG reads -0.186 E-score; that for AGTAATAC, -0.0229 E-score; that for GATTTTTA, -0.161 E-score.
Next, CACTCTGC: 0.187 E-score; ACCCATAG: 0.109 E-score; CAGTGCGG: -0.0162 E-score.
The result for TAATGACA reads 0.203 E-score.
For CGTCCGAG, the binding signal was -0.0482 E-score.
On to ACCGTTAG, for which the binding signal is -0.128 E-score.
The result for AAATCAAA reads -0.105 E-score.
Next, AGACATAG: -0.247 E-score.
As for ATCCGGTA, the binding signal was determined as 0.00298 E-score.
The result for CCCTGGTA reads 0.114 E-score.
In the case of CATATTTA, the binding signal amounted to 0.00251 E-score.
Next, CTTATATC: -0.15 E-score; CATTTGAA: -0.142 E-score; CCGCTTAC: 0.0928 E-score.
The result for CACACCCC reads 0.402 E-score.
Next, ATGCAACC: 0.0134 E-score; GAGGCTGA: -0.0996 E-score.
In the case of ATATCTGC, the binding signal is -0.0401 E-score.
For the sequence ACATCTAC, the binding signal is -0.11 E-score.
CTTAGATC: the binding signal was found to be 0.0643 E-score.
The result for GGGGTACA reads 0.329 E-score; that for GCTGTATA, -0.0632 E-score; that for ACCCAGCC, 0.0719 E-score.
The result for CAGATAAC reads 0.133 E-score; that for GATTCCTA, -0.0841 E-score; that for AGCTGCCT, -0.201 E-score.
In the case of GCGGTTAC, the binding signal stood at 0.0771 E-score.
Next, CAGCTTCC: -0.225 E-score.
Next, TCAGCTAA: -0.115 E-score; AGAAGTCG: -0.0442 E-score.
The result for GACCTTTA reads -0.156 E-score; that for AAACTCTA, -0.165 E-score.
Regarding AAGAAACC, the binding signal turned out to be 0.0261 E-score.
On to CCGAGGGA, for which the binding signal was 0.109 E-score.
Next, GCCGGCTA: -0.0263 E-score; CGCGAGAC: 0.0227 E-score; GGGACTCA: -0.237 E-score.
The result for ATGGAGAA reads -0.159 E-score; that for CTTTACAA, -0.246 E-score.
The result for ATGGGGTC reads 0.241 E-score.
Take ACGCCCAA: the binding signal came to 0.176 E-score.
The result for ATTAGGGG reads 0.15 E-score; that for ATTGAAAC, -0.112 E-score; that for ATCAACGA, -0.0938 E-score.
Turning to AGATACCT, the binding signal is 0.179 E-score.
Consider ATGCCTAC, for which the binding signal is -0.0194 E-score.
The result for AAAGGCTT reads -0.349 E-score.
Next, ATGAGTGC: -0.144 E-score.
Next, GCTGAGCC: -0.194 E-score; AGGCTCGG: -0.15 E-score.
As to ACACGGTC, the binding signal turned out to be 0.413 E-score.
Next, AGTATGTG: 0.0648 E-score; ACGTCAAG: 0.0569 E-score; ATTAGGTA: -0.115 E-score.
The result for GCTTGTCA reads -0.115 E-score.
The result for AGCTTTAC reads -0.184 E-score; that for GAAGAGCC, -0.134 E-score; that for CGGTCCCC, -0.0297 E-score.
With CCTCCCCA, the binding signal came to 0.0488 E-score.
Next, AAGCTCTA: -0.0602 E-score; GTTCGGCA: 0.0942 E-score; ACAGCTGA: -0.0986 E-score.
The result for GCAAGTCA reads -0.111 E-score; that for GAAAAGCA, -0.158 E-score.
The result for ATTTGGAC reads -0.0886 E-score; that for AATGGGTC, -0.11 E-score.
In the case of GCACTGCA, the binding signal is -0.133 E-score.
AAACACTA: the binding signal is 0.298 E-score.
On to ATGCTTTC, for which the binding signal was -0.138 E-score.
Next, ACCTATAG: 0.0231 E-score; AATCTGAT: -0.0316 E-score.
The result for CGTTAGGA reads -0.135 E-score; that for ACGCACAT, -0.11 E-score.
Next, ACTTTTCA: -0.094 E-score; AGAGACAC: 0.411 E-score; ACTTCCGA: 0.0231 E-score.
For AAACATTG, the binding signal was -0.157 E-score.
On to AATCACAA, for which the binding signal was -0.217 E-score.
Next, CAAGGACC: 0.126 E-score; CCATTTCA: -0.129 E-score; GTATGACA: 0.257 E-score.
On to ACTCTAAG, for which the binding signal was -0.0416 E-score.
Next, AACGGAAA: -0.172 E-score.
Next, CCGCAATA: -0.0576 E-score; GTAGTTGA: 0.12 E-score.
Take CAGCGGCC: the binding signal is -0.317 E-score.
The result for GCAGTAAC reads -0.12 E-score; that for AGAGCGTG, 0.189 E-score.
The result for GCCACTAC reads -0.0291 E-score.
Turning to TCAGCGAA, the binding signal was -0.139 E-score.
Next, ACATTCAC: -0.0952 E-score.
Next, CAAATTCC: -0.234 E-score.
The result for ACCCAACT reads 0.0776 E-score; that for CGCGAGAG, -0.108 E-score; that for AATTGGCC, -0.193 E-score.
CCACAGCG: the binding signal was 0.105 E-score.
Regarding GGACGCCA, the binding signal is 0.0277 E-score.
Regarding AGACAGCG, the binding signal is -0.138 E-score.
As for AAGCTATC, the binding signal is -0.223 E-score.
Next, CCGAGAGA: 0.138 E-score; GCTCCGAA: -0.0737 E-score.

The values above are taken from paper PMC10668032.
